Screen size: about 91,000 compounds; about 290 (0.32%) were called active. Inconclusive results, whose numbers are uncertain, are shown with a selection of clear calls. The call rests on the fitted dose curve; in most records, active means well fitted inhibition curve with a large enough effect; inconclusive means small, poorly fitted or top-dose-only effect; inactive means no such curve, though single readings can be large or run the other way. Potencies beside an inconclusive call are fits to weak or partial responses and may not hold up.
target: Single-stranded DNA cytosine deaminase (Homo sapiens) (UniProt Q9GZX7); test: Primary qHTS assay for inhibitors of Activation Induced Cytidine Deaminase (AID): AID signal; conditions: AID deamination FRET fluorescence, UDG-coupled, 4 h; series mostly up to 115 µM; further: nearly all actives have a fitted effect of over 25% in size
Potency means the concentration at half of the fitted maximal effect; tags describe the fitted curve by direction and shape.

Chain of UniProt Q9GZX7 (Q9GZX7 whole entry, looked up): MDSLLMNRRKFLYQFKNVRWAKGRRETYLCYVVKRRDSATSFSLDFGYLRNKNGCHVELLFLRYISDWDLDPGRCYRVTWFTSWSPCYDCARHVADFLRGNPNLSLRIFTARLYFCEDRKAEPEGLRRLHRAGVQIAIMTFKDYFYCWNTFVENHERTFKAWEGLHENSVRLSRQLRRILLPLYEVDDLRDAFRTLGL

Structure (SMILES) | Potency
COc1cccc(-c2nc(CS(=O)CC(=O)N3CCN(c4cccc(C(F)(F)F)c4)CC3)c(C)o2)c1 (configuration not stated) | active: 44.7 µM
COc1ccc(C2CC(=O)N3CN(C4CCCCC4)CSC3=C2C#N)cc1 (configuration not stated) | inconclusive: 89.1 µM [inhibitor, single point]
CCc1ccc(CNC(=O)CSCc2cnn(-c3ccccc3)c2-n2cccc2)cc1 | inconclusive: 44.7 µM [inhibitor, partial curve, poor fit]
CCc1ccc(C(=O)COC(=O)c2ccc(C(=O)c3ccccc3)cc2)cc1 | inactive
Cc1cc(O)c(C(c2cccc(Cl)c2)N2CCN(c3ccccc3)CC2)c(=O)n1Cc1ccco1 (configuration not stated) | inconclusive: 25.1 µM [inhibitor, full curve, poor fit]
O=C(COc1ccc(Cl)cc1Br)Nc1ncn[nH]1 | inactive
CCOc1ccc(-n2c(SCc3nc(-c4ccccc4C)no3)nnc2-c2ccccc2)cc1 | inactive
Cc1ccc(S(=O)(=O)c2nnn3c2nc(Nc2ccc(C(C)C)cc2)c2sccc23)cc1C | inconclusive: 12.6 µM [inhibitor, partial curve, poor fit]
CC(C)CNC(=O)NC(=O)COC(=O)c1ccc2c(=O)n3c(nc2c1)CCCCCC3 | inactive
Cc1[nH]c2ccc(Cl)cc2c1C | inactive
O=C(COc1ccccc1-c1noc(-c2cccc(Cl)c2)n1)N1CCCCCC1 | inconclusive: 56.2 µM [inhibitor, partial curve, poor fit]
CCOc1ccc(NC(=O)CN2C(=O)C(c3ccccc3)=NC23CCCCCC3)cc1 | inconclusive: 44.7 µM [inhibitor, partial curve]
CCOc1ccc(CCNC(=O)c2cc3c(-c4cccc(OC)c4)nn(C)c3s2)cc1OCC | inconclusive: 6.31 µM [inhibitor, full curve, poor fit]
CCCCC12CN3CC(C)(CN(C1)C3c1c(C)[nH]c(=O)[nH]c1=O)C2=O (configuration not stated) | inconclusive: 70.8 µM [inhibitor, partial curve, poor fit]
CCCCCOc1ccc(C(=O)N(Cc2ccccc2)C2CCS(=O)(=O)C2)cc1 (configuration not stated) | inconclusive: 50.1 µM [inhibitor, partial curve, poor fit]
CCc1ccc(/C=C2/SC(=S)NC2=O)cc1 | inconclusive: 70.8 µM [inhibitor, partial curve]
COc1ccc(/C=C(\C#N)C(=O)Nc2ccccc2C(=O)O)cc1OC(=O)c1ccccc1Cl | inconclusive: 56.2 µM [inhibitor, partial curve, poor fit]
COc1ccc(-c2noc(CSc3nnc(-c4ccncc4)n3-c3ccccc3)n2)cc1 | inconclusive: 79.4 µM [inhibitor, single point]
Cc1ccccc1-c1noc(CSc2nnc(Cc3ccccc3)n2-c2ccc(F)cc2)n1 | active: 20 µM
CC(C)c1ccc(C2c3c(-c4ccccc4O)n[nH]c3C(=O)N2CCc2ccccc2)cc1 (configuration not stated) | inconclusive: 50.1 µM [inhibitor, partial curve, poor fit]
CC(Sc1nc(-c2ccccc2)c(C#N)c(=O)[nH]1)C(=O)Nc1ccc(F)cc1 (configuration not stated) | inconclusive: 79.4 µM [inhibitor, partial curve, poor fit]

Structure (SMILES) | Potency
CCCCNC(=O)c1ccc(NC(=O)Nc2ccccc2)cc1 | inactive
COc1ccc(Oc2c(C)oc3cc(OCC(=O)c4ccc(OC)cc4)ccc3c2=O)cc1 | inactive
CC(=O)c1cc(CCC(=O)OC(C)C(=O)C23CC4CC(CC(C4)C2)C3)oc1C (configuration not stated) | inactive
Cc1ccc(CSc2nc(=O)c3c(C)cc(C)nc3n2C2CC2)cc1 | inconclusive: 50.1 µM [inhibitor, partial curve, poor fit]
CCOC(=O)c1cc(-c2ccc(F)cc2)n(CCC(=O)Nc2ccccc2OC)c1C | inconclusive: 17.8 µM [inhibitor, full curve, poor fit]
CC(Sc1ncc(S(=O)(=O)c2ccc(C(C)C)cc2)c(N)n1)C(=O)Nc1ccccc1 (configuration not stated) | inconclusive: 7.94 µM [inhibitor, full curve, poor fit]
CC(=O)c1cccc(NC(=O)C(C)N(C)Cc2ccccc2N2CCCCC2)c1 (configuration not stated) | inconclusive: 39.8 µM [inhibitor, partial curve, poor fit]
COc1cc(OC)c(NC(=O)N2CCOc3ccc(C)cc32)cc1Cl | inconclusive: 12.6 µM [inhibitor, full curve, poor fit]
Cc1nc(/C=C/C(=O)N(Cc2ccccc2)C2CC2)cs1 | inactive
O=C(NCCCN1CCN(c2ccc(F)cc2)CC1)c1cc2c(s1)-c1ccccc1OC2 | inconclusive: 20 µM [inhibitor, partial curve, poor fit]
COc1ccc(C(=O)c2cn(Cc3ccccc3F)c3ccc(F)cc3c2=O)cc1 | inconclusive: 28.2 µM [inhibitor, full curve]
O=C(c1cccc(Cl)c1)N1CCC(c2nc3c(nnn3Cc3ccc(F)cc3F)c(=O)[nH]2)CC1 | inconclusive: 100 µM [inhibitor, partial curve, poor fit]
CCCCOc1cccc(C(=O)N(Cc2ccc(Cl)cc2)C2CCS(=O)(=O)C2)c1 (configuration not stated) | inconclusive: 25.1 µM [inhibitor, full curve, poor fit]
Cc1ccc(-c2nc(CN3C(=O)C(=O)N(C(C)C)C3=O)co2)c(C)c1 | inactive
Cn1nc(C(=O)NCc2cccc(Cl)c2)c2c1-c1ccccc1SC2 | inconclusive: 44.7 µM [inhibitor, partial curve, poor fit]
S=C(NCCCc1ccccc1)Nc1ccc(Br)cc1Cl | inactive
COc1ccc(-c2cn3cccnc3n2)cc1NC(=O)COc1ccccc1 | inconclusive: 89.1 µM [inhibitor, partial curve, poor fit]
CC(C)c1ccc(NC(=O)c2cn(C3CCCCC3)c(=O)c3c2c2ccccc2n3C)cc1 | inconclusive: 20 µM [inhibitor, full curve, poor fit]
COc1ccc(CN2CCc3nc(Nc4ccccc4)ncc3C2)c(OC)c1OC | inconclusive: 50.1 µM [inhibitor, partial curve, poor fit]
CCCCn1cc(S(=O)(=O)c2ccc(OCC)cc2)c(=O)c2cc(OC)c(OC)cc21 | inconclusive: 89.1 µM [inhibitor, partial curve, poor fit]
Cc1ccc(C)c(N2CCN(C(=O)C3CCN(S(=O)(=O)c4ccc5[nH]c(=O)oc5c4)CC3)CC2)c1 | inconclusive: 50.1 µM [inhibitor, partial curve, poor fit]

Structure (SMILES) | Potency
Cc1ccc2onc(CC(=O)N3CCN(c4ccc(Cl)cc4)CC3)c2c1 | inconclusive: 25.1 µM [inhibitor, full curve]
COC(=O)c1cc2oc3ccccc3c2n1CC(=O)Nc1ccc(OC)c(OC)c1 | inactive
O=C1CC(c2nc3ccccc3n2CCC2CCCCC2)CN1c1ccccc1Cl (configuration not stated) | inconclusive: 89.1 µM [inhibitor, partial curve, poor fit]
Cc1ccc(-n2ncc(C(=O)N3CCN(C4CCCCC4)CC3)c2C2CCN(C(=O)OC(C)(C)C)CC2)cc1C | inconclusive: 50.1 µM [inhibitor, partial curve, poor fit]
O=C(O)CCNC(=O)c1cc(C2CC2)nc2ccccc12 | inactive
CCC(=O)N1CCc2cc(Br)cc(S(=O)(=O)CCC(=O)N(C)c3cccc(C)c3)c21 | inconclusive: 79.4 µM [inhibitor, partial curve, poor fit]
Fc1ccccc1N1CCN(c2ncnc3c2nc2n3CCCCC2)CC1 | inactive
Cc1ccc2c(CC(=O)N3CCN(c4cccc(Cl)c4)CC3)coc2c1C | inconclusive: 28.2 µM [inhibitor, full curve, poor fit]
O=C1c2c(O)ccc(O)c2C(=O)c2c(NCCNCCO)ccc(NCCNCCO)c21 | active: 10 µM
Cc1nnc(NC(=O)C(Oc2ccccc2)c2ccccc2)s1 (configuration not stated) | inactive
CCOC(=O)c1c(NC(=O)CSc2cn(CCNC(=O)c3ccc(OC)c(OC)c3)c3ccccc23)sc2c1CCC2 | inconclusive: 3.55 µM [inhibitor, partial curve, poor fit]
COc1cc(C(=O)N2CCc3c([nH]c4ccccc34)C2c2ccc(F)cc2)cc(OC)c1OC (configuration not stated) | inconclusive: 50.1 µM [inhibitor, full curve, poor fit]
CC(=O)N1CCc2c(sc3c2c(=O)n(Cc2ccccc2)c(=O)n3Cc2cccc(Cl)c2)C1 | active: 31.6 µM
CC(=O)O[C@H]1C[C@@H]2CC[C@@H]3[C@H](CC[C@@]4(C)[C@H]3C[C@H]([N+]3(C)CCCCC3)[C@@H]4OC(C)=O)[C@@]2(C)C[C@@H]1[N+]1(C)CCCCC1 | active: 22.4 µM
COc1ccc(C2Nc3ccccc3-n3c(-c4ccccc4)c4c(=O)n(C)c(=O)n(C)c4c32)cc1 (configuration not stated) | inconclusive: 89.1 µM [inhibitor, single point]
FC(F)(F)c1cccc(-n2nnnc2C2(N3CCOCC3)CCCC2)c1 | inactive
Cc1cnc2c(S(=O)(=O)NCCC3CCCO3)cccc2c1 (configuration not stated) | inactive
Cc1ccc(-c2csc(Nc3ccc(S(=O)(=O)Nc4nc(C)cc(C)n4)cc3)n2)cc1 | inactive
CC(C)(C)OC(=O)N1CCC(c2c(C(=O)NCCCN3CCc4ccccc4C3)cnn2-c2ccccc2)CC1 | inconclusive: 79.4 µM [inhibitor, partial curve, poor fit]
Cc1nc2sccn2c(=O)c1CCN1CCC(=C(c2ccc(F)cc2)c2ccc(F)cc2)CC1 | inconclusive: 56.2 µM [inhibitor, partial curve, poor fit]

Reference: PubChem BioAssay AID1347428 (National Center for Advancing Translational Sciences (NCATS), 2020)
